US10751318B2, “Pharmaceutical co-crystal and use thereof” (SYN-NAT PRODUCTS ENTERPRISE LLC, priority 2015, dated 2020)
Where two headings read alike, the source gives them in different places.

Tests used:
[1] = system: VeroE6 cells
[2] = system: Hantaan virus (HTNV); type: cell-based; details: 7 d, VeroE6 cells

carboplatin cis-cyclobutane-1,2-dicarboxylic acid co-crystal [CBCBP]
TC50 on VeroE6 cells [1]: 58.367 µg/mL | inhibition rate of HTNV ([2]; 2.3 μg/mL): 6.5% | inhibition rate of HTNV ([2]; 4.6 μg/mL): 20.0% | inhibition rate of HTNV ([2]; 9.3 μg/mL): 25.5% | inhibition rate of HTNV ([2]; 18.7 μg/mL): 40.0% | inhibition rate of HTNV ([2]; 37.5 μg/mL): 50.0% | IC50 inhibition of HTNV ([2]; regression equation): 33.684 µg/mL
